Results taken from paper PMC4336329 (PLoS ONE, 2015).
The whole screen tested about 310,000 compounds, of which about 14,000 (4.5%) showed an effect of 50% or more. Effects have a minus sign here. Some of the results follow.

Molecular target: human ether-à-go-go-related gene (hERG) potassium channel (human, UniProt Q12809)
Test: primary screen, population patch clamp on CHO cells stably expressing hERG
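Further: peak tail current of the secondary pulse compared with the same well before compound.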

human ether-à-go-go-related gene (hERG) potassium channel, sequence (Q12809 whole entry, looked up): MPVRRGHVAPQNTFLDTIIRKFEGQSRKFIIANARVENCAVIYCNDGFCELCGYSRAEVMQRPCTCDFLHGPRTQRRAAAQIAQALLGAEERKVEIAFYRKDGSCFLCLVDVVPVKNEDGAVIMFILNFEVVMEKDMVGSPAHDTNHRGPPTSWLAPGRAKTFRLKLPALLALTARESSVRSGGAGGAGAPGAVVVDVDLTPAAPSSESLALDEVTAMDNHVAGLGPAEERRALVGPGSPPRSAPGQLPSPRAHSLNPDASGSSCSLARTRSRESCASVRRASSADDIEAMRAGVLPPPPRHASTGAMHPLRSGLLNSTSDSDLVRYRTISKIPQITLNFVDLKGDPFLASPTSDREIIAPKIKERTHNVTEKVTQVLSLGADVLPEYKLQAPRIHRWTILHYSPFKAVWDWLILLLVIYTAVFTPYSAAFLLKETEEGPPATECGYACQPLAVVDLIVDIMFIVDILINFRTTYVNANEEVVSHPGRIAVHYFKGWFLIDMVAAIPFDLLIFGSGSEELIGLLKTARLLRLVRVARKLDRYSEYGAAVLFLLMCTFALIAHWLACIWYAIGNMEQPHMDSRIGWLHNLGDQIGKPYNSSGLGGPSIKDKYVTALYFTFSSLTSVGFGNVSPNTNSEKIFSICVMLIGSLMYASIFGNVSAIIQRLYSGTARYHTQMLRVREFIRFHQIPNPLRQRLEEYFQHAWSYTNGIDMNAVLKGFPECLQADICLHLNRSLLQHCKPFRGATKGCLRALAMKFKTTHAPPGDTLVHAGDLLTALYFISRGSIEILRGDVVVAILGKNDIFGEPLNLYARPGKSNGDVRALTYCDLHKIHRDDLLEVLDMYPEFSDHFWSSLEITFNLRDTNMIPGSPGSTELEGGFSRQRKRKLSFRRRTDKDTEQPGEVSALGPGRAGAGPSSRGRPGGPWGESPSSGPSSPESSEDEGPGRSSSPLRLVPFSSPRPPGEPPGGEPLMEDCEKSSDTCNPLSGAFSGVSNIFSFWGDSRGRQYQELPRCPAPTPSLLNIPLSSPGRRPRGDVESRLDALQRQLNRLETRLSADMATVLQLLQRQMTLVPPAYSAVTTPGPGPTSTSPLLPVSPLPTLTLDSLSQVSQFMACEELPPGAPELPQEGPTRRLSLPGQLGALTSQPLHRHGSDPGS

Row | SMILES | hERG current change (%, negative = inhibition) at 10uM [%]
1 | O=[N+]([O-])c1ccc(N2CCCCC2)cc1SCCO | -16.7
2 | Cc1cc(C)cc(OCC(=O)Nc2ccc(CN3CCCCC3)cc2)c1 | -43.7
3 | O=C(CSc1nnc(-c2cccnc2)n1Cc1ccccc1)NCc1ccco1 | -1.17
4 | Cn1c(SCC(=O)Nc2ccc(F)cc2F)nnc1-c1cccnc1 | -5.64
5 | COc1cccc(C(=O)NCC(c2ccco2)N2CCc3ccccc3C2)c1 (stereo not shown) | -17
6 | COCCCNc1nc2c(c(=O)n(Cc3cccc(Br)c3)c(=O)n2C)n1C | -7.68
7 | COc1ccc(NC(=O)COC(=O)C2CCC(C(C)(C)C)CC2)c([N+](=O)[O-])c1 (stereo not shown) | 19.4
8 | COc1cc(/C=N/NC(=O)/C(=C\c2ccc([N+](=O)[O-])cc2)NC(=O)c2ccccc2)cc(OC)c1O | -14
9 | Cc1nc2ccccc2c2c1CC(C(C)(Cl)Br)O2 (stereo not shown) | -61.6
10 | O=S(=O)(Cc1ccccc1)N1CCN(Cc2ccc(F)cc2Cl)CC1 | 4.56
11 | COCCN(CC(=O)Nc1cccc(C)c1C)C(=O)c1cc(-c2cccs2)nn1-c1ccccc1 | 1.14
12 | O=C(O)CCS(=O)(=O)Cc1ccccc1Cl | 12.1
13 | O=C(NCCS(=O)(=O)c1ccc(Br)cc1)c1ccc(F)cc1 | 5.9
14 | O=C(CCN1C(=O)/C(=C/c2ccccc2Cl)SC1=S)NCCCN1CCOCC1 | -15.8
15 | COc1ccc(CN2C(=O)NC(=O)/C(=C\c3ccco3)C2=O)cc1 | 27.2
16 | C=CCNC(=S)N1CCC(C(=O)c2ccc(F)cc2)CC1 | -44.4
17 | Cc1ccc(OCCOCCN2CCN(C)CC2)c(C(C)(C)C)c1.O=C(O)C(=O)O | -1.1
18 | COc1ccc(C(C)NC(=O)Nc2ccc(C(C)=O)cc2)cc1OC (stereo not shown) | 12
19 | N/C(=N/OC(=O)c1cccc([N+](=O)[O-])c1)c1cccc([N+](=O)[O-])c1 | 19.3
20 | CCOc1ccccc1NC(=O)NCc1ccco1 | 8.52
21 | COc1ccc(Cl)cc1C(=O)NCCCn1ccnc1 | 4.53
22 | COc1cc(CN2CCN(Cc3c[nH]c4ccccc34)CC2CCO)cc(OC)c1 (stereo not shown) | -32.3

Row | SMILES | hERG current change (%, negative = inhibition) at 10uM [%]
23 | Cc1ccc(C(=O)CSc2nnc(COc3cccc(C)c3)o2)cc1 | -0.502
24 | CCN(CC)C(=O)Oc1ccc2oc(=O)cc(-c3cc4cccc(OC)c4o3)c2c1 | 4.26
25 | CC(O)C1C(=O)OC2(C)CC(C)(C)NC(=S)N12 (stereo not shown) | 3.17
26 | CCNS(=O)(=O)c1ccc(NC(=O)c2ccc(Cn3cc([N+](=O)[O-])cn3)o2)cc1 | -34.8
27 | CCc1nc2ccccc2c(C(=O)O)c1C | -1.62
28 | CCOc1cc(CNCCCN2CCOCC2)ccc1OCC(=O)Nc1cccc2ccccc12.Cl | -7.77
29 | Cc1cc(NC(=O)c2ccc(Cl)cc2)cc(C)c1OCC(=O)N1CCOCC1 | -52.4
30 | CCOc1ccc(CC2NCCc3cc(OCC)c(OCC)cc32)cc1OCC (stereo not shown) | -13.3
31 | O=C(NC(=S)Nc1ccc(Cl)c(C(=O)O)c1)c1ccco1 | -3.52
32 | CN(C)S(=O)(=O)c1ccc(C(=O)Nc2cccnc2)cc1 | -22.2
33 | Cn1c(=O)[nH]c(=O)c2c1nc(SCCN1CCCCC1)n2Cc1ccccc1 | -78.9
34 | CCCCN(CCO)CCCC | 14
35 | Fc1ccc(-n2cnnn2)c(F)c1 | 2.55
36 | O=C(O)Cc1sc(-c2ccc(Cl)cc2)nc1-c1ccccc1 | 2.93
37 | N#Cc1ccc(CSc2nnc(-c3ccccn3)n2-c2ccc(Cl)cc2)cc1 | -51.8
38 | Cc1ccc(N2CC(C(=O)Nc3ccc(S(=O)(=O)NCC4CCCO4)cc3)CC2=O)cc1 (stereo not shown) | 9.06
39 | N#C/C(=C\c1cccnc1)C(=O)Nc1ccc(S(N)(=O)=O)cc1 | 5.43
40 | Cc1cc2nc3s/c(=C/c4ccc(-c5ccccc5C(=O)O)o4)c(=O)n3c2cc1C | 19.3
41 | CN(Cc1cnn(C)c1)C(=O)C1CCC(=O)N(Cc2ccc(Cl)cc2)C1 (stereo not shown) | -9.64
42 | N#C/C(=C\c1ccc(O)c(Br)c1)C(=O)N1CCCCC1 | 5.9
43 | N#CCCCn1c(-c2ccccc2)noc1=O | -7.09
44 | Cc1c(C(=O)N2CCOCC2)c(S(=O)(=O)Nc2ccc(F)cc2)c(C)n1C | 15.5

Row | SMILES | hERG current change (%, negative = inhibition) at 10uM [%]
45 | N#Cc1c(NC(=O)c2nc3ncccn3n2)sc2c1CCCCC2 | 2.44
46 | O=C(Nc1cccc(/C=C/c2ccccn2)c1)c1ccc(-n2cncn2)c([N+](=O)[O-])c1 | -24.9
47 | Cc1ccc(-c2nc(=O)[nH]c3ccccc23)cc1 | -20
48 | COc1ccc(S(=O)(=O)N2CCOCC2)cc1NC(=O)[C@@H]1CCCN1C(=O)c1cccs1 | -12.8
49 | COc1ccnc(N=CNOCc2ccc(Cl)cc2)c1C#N | 15.5
50 | Cc1cccc(CN2CCC(CNC(=O)C3CCCN(S(=O)(=O)c4cnc[nH]4)C3)CC2)c1 (stereo not shown) | -1.13
51 | Cc1ccc(N(C)S(=O)(=O)c2ccc(-c3cc(C)no3)s2)cc1 | 8.09
52 | Cc1nc(-c2ccccc2)sc1-c1nc(-c2cccnc2)ncc1S(=O)(=O)c1ccccc1 | -6.63
53 | COc1cccc2cc(C(C)N(CCCN3CCOCC3)C(=S)Nc3cc(C)cc(C)c3)oc12 (stereo not shown) | 5.36
54 | Cc1nc(-c2cc(-c3nc(-c4ccc(C(F)(F)F)cc4)no3)no2)cs1 | -28.6
55 | Cc1ccc(O)c(C(CC(=O)NCc2ccco2)c2ccccc2)c1 (stereo not shown) | 1.71
56 | CC(=O)Oc1ccc(-c2nc3ccccc3c(=O)o2)cc1 | 8.78
57 | CC(=O)c1cc(-c2ccccc2)n(CCC(=O)NC(C)(C)C)c1C | 8.01
58 | COc1cccc(C2CC(c3c(-c4ccccc4)c4cc(Cl)ccc4[nH]c3=O)=NN2S(C)(=O)=O)c1OC (stereo not shown) | 7.42
59 | CCCC1(c2ccccc2)NC(=O)N(CC(=O)NCc2ccc(OC)cc2)C1=O (stereo not shown) | 3.18
60 | OCCCc1n[nH]c(=S)n1-c1ccccc1 | 8.54
61 | C=CCOc1c2ccc(C(=O)N(CC)c3ccc(OC)cc3)cc2nn1C | 14.1
62 | CCS(=O)(=O)N1CCCC(C(=O)NCCCOC)C1 (stereo not shown) | 23.5
63 | Cc1c(C=O)c2ccccc2n1Cc1ccc(F)cc1 | -43.1
64 | Cc1ccc(NS(=O)(=O)c2c(C)[nH]c(=O)[nH]c2=O)cc1C | 2.52
65 | CCOc1ccsc1C(=O)OC | 11.1
66 | O=C1c2cccc3cccc(c23)N1Cc1ccc(F)cc1 | -25.2

Row | SMILES | hERG current change (%, negative = inhibition) at 10uM [%]
67 | Cc1nn(CCC(=O)NNC(=S)Nc2cccc(Cl)c2)c(C)c1[N+](=O)[O-] | 5.42
68 | CC1CCC(NC(=O)COC(=O)CSc2ccc(C(N)=O)cc2[N+](=O)[O-])CC1 (stereo not shown) | -2.16
69 | CC(C)(C)c1ccc(OCCNC(=O)c2ncn[nH]2)cc1 | -3.57
70 | O=C(Nc1ccc(N2CCOCC2)cc1)C1CCCN(S(=O)(=O)c2cccc(C(F)(F)F)c2)C1 (stereo not shown) | 15.5
71 | Cc1ccc(S(=O)(=O)Nc2cc(C(F)(F)F)ccc2N2CCOCC2)c(C)c1 | 4.38
72 | CC(C)Cc1nnc(NC(=O)c2cc(S(=O)(=O)N(C)C)ccc2N2CCCC2)s1 | -22.6
73 | CCOC(=O)c1c(COC(=O)c2ccco2)nc2ccccc2[n+]1[O-] | -16.6
74 | Cc1ccccc1SCC(=O)Nc1cc(C(F)(F)F)ccc1N1CCOCC1 | -1.77
75 | Cc1ccc2cc(CN(C(=O)c3ccncc3)C(C)C)c(=O)[nH]c2c1 | -10.4
76 | CC(Cc1ccccn1)NC(=O)CCc1nnc(C2CCCCC2)o1 (stereo not shown) | 11.6
77 | Cc1oc(-c2ccccc2)cc1C(=O)Nc1cccc(/C=C\C(=O)O)c1 | 17.1
78 | CCOc1cccc(CN2CCN(Cc3ccc(C)o3)C(CCO)C2)c1O (stereo not shown) | -13.1
79 | CCOC(=O)C(C#N)c1ccccn1 (stereo not shown) | 14.1
80 | N=c1nc(N)nc2n1NC(c1ccc(F)cc1)=CS2 | -24.1
81 | Cc1sc2ccccc2[n+]1CC(=O)c1ccccc1.[Br-] | 18.7
82 | CC(C)(C)c1cn(-c2ccc(F)cc2)c(=S)[nH]1 | -4.59
83 | COC1=CC(=O)OC(/C=C/c2ccccc2)C1 (stereo not shown) | -1.02
84 | CCOc1ccc(CN(C(=O)c2oc3ccccc3c2C)C2CCS(=O)(=O)C2)cc1 (stereo not shown) | -24.8
85 | CC(=O)Oc1cc2cccc(OC(C)=O)c(=O)c2c(OC(C)=O)c1OC(C)=O | 1.34
86 | O=C(Nc1cccs1)OCCN1CCN(Cc2ccccc2)CCC1=O | -9.26
87 | CCCCCCSc1ccc([C@H]2N[C@@](CC(C)C)(C(=O)OC)[C@H]3C(=O)N(C)C(=O)[C@@H]23)cc1.O=C(O)C(F)(F)F | -3.24
88 | CCOc1ccc(C(CC(=O)O)NC(=O)c2ccco2)cc1 (stereo not shown) | 11
